Data: ChEMBL document CHEMBL4888484, “Replenishing the malaria drug discovery pipeline: Screening and hit evaluation of the MMV Hit Generation Library 1 (HGL1) against asexual blood stage Plasmodium falciparum ,using a nano luciferase reporter read-out” (2022)
About 540 (0.36%) of roughly 150,000 compounds showed an effect of 50% or more. The list shows a part of the results.

System: Plasmodium falciparum
Assay: Primary screen in NF54 nanoGlo assay, in single point, at 2uM, 72h; a lower Z score goes with more inhibition
Type: functional, Erythrocyte
Conditions: timepoint 72 hour

| SMILES | % Inhibition [%] | Z score |
| --- | --- | --- |
| COc1cccc(CNC(=O)c2ccc(NS(=O)(=O)c3ccc(-c4ccccc4C)cc3)cc2)c1 | -11 | 1.66 |
| CC(C)C(=O)NCCNC(=O)N1CCCC2CCCC21 (stereo unspecified) | -4 | 0.49 |
| COc1cccc(CNC(=O)[C@@H]2CCCCN2S(=O)(=O)c2ccc3c(c2)nnn3C(C)C)c1 | -35 | 3.06 |
| Cc1nc(CNCCC(=O)OC(C)(C)C)cs1 | 2 | -0.2 |
| Cc1nc(C)c(CC(=O)N2CC[C@@]3(CCCN(CC4CC4)C3=O)C2)s1 | -1 | 0.16 |
| CN(Cc1nccs1)c1cc([C@H]2C[C@@H](O)C2)ncn1 | -1 | 0.12 |
| O=C1c2ccccc2C(=O)N1CCc1cn2cc(F)ccc2n1 | -5 | 0.67 |
| Cc1cccc(OC(C)(C)C(=O)N[C@@H](C)c2ncnn2C)c1 | -11 | 2.16 |
| CCn1nc(-c2ccccc2CN2CCOCC2)nc1N(C)C | -10 | 1.35 |
| COCCN1C[C@@H]2CC[C@H]1CN(C(=O)c1cc(-n3cccn3)ccc1Cl)C2 | 4 | -0.8 |
| CC[C@H](C)n1ncc(NC(=O)C(C)(C)c2cccc(O)c2)c1C1CC1 | 6 | -0.74 |
| CC1=C(C(=O)NCCNC(=O)OC(C)(C)C)[C@H](C)n2ncnc2N1C | -3 | 0.44 |
| COc1cccc(Cl)c1CN1CCOC[C@H]1c1nc(-c2ccccc2)no1 | -1 | 0.08 |
| CN(CCCCc1ccccc1)C(=O)Nc1cccc(S(N)(=O)=O)c1 | 1 | -0.2 |
| Cc1c(Br)cccc1CN1C(=O)NC2(CC(O)C2)C1=O (stereo unspecified) | -14 | 1.81 |
| CC(=O)Nc1ccc(Oc2ccc(-c3noc(CN4C(=O)COc5ccc(Cl)cc54)n3)cc2)cc1 | -12 | 1.46 |
| Cn1ccnc1C(O)C1CCCN(CC(=O)NC2CCCCCCC2)C1 (stereo unspecified) | -7 | 1.32 |
| CC1CN(CC(O)Cn2cccn2)CCN1CC(O)c1ccccc1 (stereo unspecified) | 0 | -0.01 |
| COc1ncccc1C(=O)NCc1cncc(-c2cccs2)c1 | 10 | -1.44 |
| CC(C)(CNC(=O)[C@H]1CCCOC1)C1CCC1 | 1 | -0.17 |
| CCc1nc(N2C[C@H]3CC[C@@H](C2)N(Cc2c(C)noc2C)C3=O)no1 | -1 | 0.08 |
| O=c1ccc2c([nH]1)CCN(S(=O)(=O)c1ccc3ccccc3c1)C2 | -16 | 2.43 |

| SMILES | % Inhibition [%] | Z score |
| --- | --- | --- |
| CC1CC(NC(=O)Nc2cnc3c(c2)c(=O)n(C)c(=O)n3C)c2nccn21 (stereo unspecified) | -7 | 1.16 |
| CC(C)(C)n1nnc(CNC(=O)N[C@H]2CCC[C@@H](C3CC3)C2)n1 | -2 | 0.34 |
| Cc1noc(C)c1CCC(=O)N1CCN(C(=O)c2cnn3c2CCCC3)CC1 | -2 | 0.31 |
| OCCN(CCO)c1ccc2ccccc2c1 | 7 | -0.86 |
| O=C(C1CCCC2CCCCC21)N1CCN(c2ncccn2)CC1 (stereo unspecified) | 32 | -4.57 |
| CC(=O)N1[C@@H](C)c2ccccc2C(C)(C)CC12CCCCC2 | 7 | -0.97 |
| Cc1ccc(CNCCC2=CCCCC2)cc1 | 33 | -4.31 |
| CN(C(=O)Cn1ccn2nc3c(c2c1=O)CCCC3)C1CCCCC1 | -22 | 2.53 |
| CCS(=O)(=O)c1cccc(CC(=O)N(C)C)c1 | -2 | 0.25 |
| O=C(NCCc1nnc2n1CCNCC2)[C@]1(c2ccccc2)CC12CCCC2 | -10 | 1.54 |
| CCC(CC)C(=O)N(Cc1ccccc1)Cc1cc(NC(=O)C2CCCC2)ccc1N(C)C | -14 | 1.22 |
| COc1ccc(N2C(=O)[C@@H]3C[C@H]2CN3C/C=C/c2ccco2)cc1Cl | -7 | 0.88 |
| O=C(Nc1ccccc1)N1CC(Cn2ccnn2)C1 | -4 | 0.7 |
| Nc1n[nH]c(CNC(=O)Nc2ccccc2C(F)(F)F)n1 | -3 | 0.53 |
| CN1CC(=O)N(CC(=O)N2CCCc3ccccc32)C1=O | -4 | 0.63 |
| Cc1nccc(N2CC[C@@H](OC(C)(C)C)C2)n1 | -7 | 0.84 |
| COCC1(NC(=O)c2ccc(N3CCC3)nc2)CCCCC1 | 15 | -2.02 |
| Cc1cc(=O)[nH]c(-n2[nH]c3c(c2=O)CCCC3)n1 | -3 | 0.53 |
| CC(C)(C#N)CNc1ncccc1C#N | -1 | 0.08 |
| O=C(Nc1noc(-c2ccccc2)c1-c1ccc(Cl)cc1)c1ccccc1 | 6 | -1 |
| COc1ccc(C(=O)N[C@H]2[C@H](O)[C@H](O)C[C@@H]2c2ccc(N3CCOCC3)nc2)cc1 | -1 | 0.15 |
